In all, about 310,000 compounds went through this assay and about 2,200 (0.71%) showed an effect of 50% or more. Effects have a minus sign here. The list shows a part of the results.

The assay deals with human ether-à-go-go-related gene (hERG) potassium channel (human, UniProt Q12809). In words: primary screen, population patch clamp on CHO cells stably expressing hERG.
Chain of human ether-à-go-go-related gene (hERG) potassium channel (Q12809 whole entry, looked up): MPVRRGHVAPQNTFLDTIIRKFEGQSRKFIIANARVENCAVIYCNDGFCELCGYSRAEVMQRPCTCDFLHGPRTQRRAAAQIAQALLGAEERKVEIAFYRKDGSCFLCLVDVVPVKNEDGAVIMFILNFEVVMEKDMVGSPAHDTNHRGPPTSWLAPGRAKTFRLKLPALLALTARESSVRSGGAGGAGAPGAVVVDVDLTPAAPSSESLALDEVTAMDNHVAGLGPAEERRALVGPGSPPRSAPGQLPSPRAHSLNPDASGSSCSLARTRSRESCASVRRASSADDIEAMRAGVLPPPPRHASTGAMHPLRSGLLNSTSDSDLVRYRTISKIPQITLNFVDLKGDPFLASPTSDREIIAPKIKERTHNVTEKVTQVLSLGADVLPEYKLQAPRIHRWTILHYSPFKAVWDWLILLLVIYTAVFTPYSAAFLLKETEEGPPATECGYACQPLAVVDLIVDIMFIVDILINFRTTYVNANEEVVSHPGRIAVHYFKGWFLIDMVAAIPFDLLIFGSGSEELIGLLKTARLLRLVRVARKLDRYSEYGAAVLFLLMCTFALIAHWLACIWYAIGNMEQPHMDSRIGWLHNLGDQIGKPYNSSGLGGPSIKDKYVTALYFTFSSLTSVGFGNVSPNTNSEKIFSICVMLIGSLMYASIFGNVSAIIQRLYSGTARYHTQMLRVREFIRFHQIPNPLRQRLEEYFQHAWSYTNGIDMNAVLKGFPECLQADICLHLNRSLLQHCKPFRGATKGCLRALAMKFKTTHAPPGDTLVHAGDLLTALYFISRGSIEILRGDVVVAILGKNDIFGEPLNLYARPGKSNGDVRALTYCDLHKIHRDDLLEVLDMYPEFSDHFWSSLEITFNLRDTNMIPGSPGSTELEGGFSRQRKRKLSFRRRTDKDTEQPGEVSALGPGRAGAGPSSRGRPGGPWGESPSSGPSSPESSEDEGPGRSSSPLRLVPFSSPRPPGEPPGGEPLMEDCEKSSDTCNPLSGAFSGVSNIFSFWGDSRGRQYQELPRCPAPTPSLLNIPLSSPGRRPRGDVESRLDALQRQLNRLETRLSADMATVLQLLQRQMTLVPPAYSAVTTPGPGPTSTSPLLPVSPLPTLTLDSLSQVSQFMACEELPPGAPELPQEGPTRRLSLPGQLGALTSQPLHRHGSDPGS
On to `O=C(CC1CCCCC1)Nc1c2c(nn1-c1ccc(F)cc1)CS(=O)(=O)C2`, for which the “hERG current change (%, negative = inhibition) at 1uM” value stood at 0.272%. The value for `Cc1ccc(C)c(NC(=O)Cn2c(=O)n(-c3ccc(CC(=O)NCC4CCCO4)cc3)c(=O)c3ccccc32)c1` (stereo not shown) was 13.1%; that for `CCOCCn1c(CN2CCN(c3ccc(OC)cc3)CC2)nc2c1c(=O)n(C)c(=O)n2C` was -11.1%.

For `Cc1ccc(NC(=O)c2cn(-c3cccc(C)n3)cn2)cc1`, the “hERG current change (%, negative = inhibition) at 1uM” value came out at 1.38%. Then `CCCCn1c(N)c(Sc2ccccc2[N+](=O)[O-])c(=O)[nH]c1=O`, with 23.3%.

For the compound `O=C(CSc1nnnn1-c1ccccc1)N1CCCc2ccccc21`, the “hERG current change (%, negative = inhibition) at 1uM” value came to 9.7%. With `O=C(NNS(=O)(=O)Cc1ccccc1)c1ccc([N+](=O)[O-])cc1`, the “hERG current change (%, negative = inhibition) at 1uM” value is 3.38%. In the case of `COc1ccc(N2CCN(C(=O)c3ccc(N4C(=O)NC5CC4(C)Oc4ccccc45)cc3)CC2)cc1` (stereo not shown), the “hERG current change (%, negative = inhibition) at 1uM” value worked out at 9.87%. As to `CCC(NC(=O)Cc1c(C)c2cc3c(cc2oc1=O)OC(C)(C)CC3)C(=O)O` (stereo not shown), the “hERG current change (%, negative = inhibition) at 1uM” value was 13.7%. As for `CCCCN(C(=O)Cc1cccc(F)c1)c1c(N)n(CCC)c(=O)[nH]c1=O`, the “hERG current change (%, negative = inhibition) at 1uM” value is listed as 6.3%.

Take `COc1ccc(N2C(=O)NC(=O)/C(=C/c3ccc(N4CCOCC4)cc3)C2=O)cc1`: the “hERG current change (%, negative = inhibition) at 1uM” value worked out at 6.36%. `O=Cc1c(N2CCCCCC2)nc2ccccn2c1=O`: the “hERG current change (%, negative = inhibition) at 1uM” value came out at 6.87%. As for `CCc1ccc(C2C(C#N)=C(N)SC(N)=C2C#N)cc1`, the “hERG current change (%, negative = inhibition) at 1uM” value is 12.3%. In the case of `CCN1CCN(S(=O)(=O)c2ccc(C(=O)Nc3sc4c(c3C(N)=O)CCN(CC)C4)cc2)CC1`, the “hERG current change (%, negative = inhibition) at 1uM” value was 6.86%. Then `O=C(CN1CCN(c2ccccn2)CC1)N(c1ccccc1)c1ccc2ccccc2c1`, with 6.26%; and `Cc1ccc(S(=O)(=O)NNC(=O)c2sc(NS(=O)(=O)c3ccccc3)nc2C)cc1`, with 4.35%; and `O=c1cc(-c2ccc(F)cc2)oc2ccccc12`, with 3.52%.

As to `COCCNC(=O)CN(c1cc(C(F)(F)F)ccc1Cl)S(C)(=O)=O`, the “hERG current change (%, negative = inhibition) at 1uM” value was found to be 10.9%.

Regarding `O=[N+]([O-])c1ccc(-[n+]2c(-c3ccccc3)cc(-c3ccccc3)cc2-c2ccccc2)cc1.[O-][Cl+3]([O-])([O-])[O-]`, the “hERG current change (%, negative = inhibition) at 1uM” value turned out to be 14.7%. For `O=c1cc(O)n(-c2ccc(Cl)cc2)c(=S)[nH]1`, the “hERG current change (%, negative = inhibition) at 1uM” value was 5.55%. Take `CCOc1ccc(S(=O)(=O)NCc2ccccn2)c(C)c1C`: the “hERG current change (%, negative = inhibition) at 1uM” value is reported as 12.1%. The value for `O=[N+]([O-])c1cccc(S(=O)(=O)N/N=C/c2ccc(O)cc2)c1` was 7.51%.

The values above are taken from paper PMC4336329 (PLoS ONE, 2015).
